# The shares of active, inactive and inconclusive entries below differ from those in the screen. A call without a number means that no potency is given here. For some of these results: A potency beside an inconclusive call is a rough fit, not a confirmed value. Calls of active or inactive are those of the source. Unless noted, calls come from the whole dose curve; as a rule, active = well fitted curve in the direction sought with a large enough effect; inconclusive = small, poorly fitted or top-dose-only effect, or another doubt; inactive = no such curve, though single readings can be large; an effect the other way counts as inactive or inconclusive. Residues, ends and D or L forms follow the SMILES beside them. *: point of attachment. Cbz = O=C(OCc1ccccc1)*; CH2F = FC*
# Legend:
# PA-1 = assay: Primary qHTS to identify gynecologic anti-cancer compounds using libraries of approved drugs and bioactive compounds (AID 1345084); settings: Gynecologic cancer cell panel viability, ATPlite luminescence, 48 h; series mostly up to 57.5 µM; note: nearly all actives have a fitted effect of over 55% in size; note: potency is the fitted concentration of half-maximal effect
# Procedure, shortened: (§1)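 Five-point cytotoxicity, 48 h drug exposure at 37 C, 5% CO2, on cells seeded 16 h beforehand. ATP content read by ATPlite luminescence.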
# [1] = target: Cytochrome P450 2C9 (Homo sapiens) (UniProt P11712); assay: Cytochrome P450 family 2 subfamily C member 9 (CYP2C9) small molecule antagonists: luciferase biochemical (cell-free) qHTS assay (AID 1645842; active = well fitted curve in the direction sought with a large enough effect in the repeat runs; inconclusive = weak or mixed curves; inactive = no such curve, though single readings can be large; an effect the other way counts as inactive or inconclusive; note: nearly all actives have a fitted effect of over 55% in size)
# Sequence of UniProt P11712 (P11712 whole entry, looked up): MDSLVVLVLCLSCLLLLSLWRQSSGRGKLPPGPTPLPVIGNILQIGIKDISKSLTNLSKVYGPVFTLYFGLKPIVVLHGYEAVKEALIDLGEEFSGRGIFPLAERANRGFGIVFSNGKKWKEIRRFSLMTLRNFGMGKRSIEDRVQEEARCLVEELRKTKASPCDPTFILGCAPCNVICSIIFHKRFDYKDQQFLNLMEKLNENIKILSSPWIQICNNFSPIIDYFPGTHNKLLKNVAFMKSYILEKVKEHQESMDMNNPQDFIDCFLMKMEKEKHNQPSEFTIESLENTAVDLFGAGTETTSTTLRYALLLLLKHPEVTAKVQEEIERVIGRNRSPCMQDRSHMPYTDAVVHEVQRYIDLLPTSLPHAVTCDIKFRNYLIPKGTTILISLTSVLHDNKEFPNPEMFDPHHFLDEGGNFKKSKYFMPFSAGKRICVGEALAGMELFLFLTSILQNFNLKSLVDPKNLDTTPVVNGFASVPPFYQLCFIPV
# Procedure, shortened: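 P450-Glo CYP2C9 system: proluciferin substrate with enzyme in mix containing 0.4% BSA, 10 min at room temperature, then NADPH regeneration solution added and incubated 1 h at 37C. Detection reagent stopped reaction; luminescence read after 20 min as RLU.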
# [2] = Primary qHTS for inhibitors of nuclear receptor binding SET domain protein 2 (NSD2) in an RCH-ACV wild type WT cells (2C) (AID 1645877); settings: activity change, negative = cell killing: at 44.9 µM (top of the series) unless noted; note: nearly all actives have a fitted effect of over 70% in size; note: potency is the fitted concentration of half-maximal effect
# SKOV3 = assay: Primary qHTS to identify gynecologic anti-cancer compounds using libraries of approved drugs and bioactive compounds (AID 1345084); settings: Gynecologic cancer cell panel viability, ATPlite luminescence, 48 h; series mostly up to 57.5 µM; note: nearly all actives have a fitted effect of over 55% in size; note: potency is the fitted concentration of half-maximal effect
# Procedure, shortened: as §1
# [3] = qHTS of pediatric cancer cell lines to identify multiple opportunities for drug repurposing: Primary screen for TC32 cells (AID 1347089); note: nearly all actives have a fitted effect of over 60% in size
# Procedure, shortened: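 Measured quantity: luminescence from CellTiter-Glo, reflecting metabolically active TC32 cells following 48 h of compound. Curves came straight from multi-point titrations, with 8 or 11 points in primary and 11 in confirmatory screening.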
# [4] = qHTS of pediatric cancer cell lines to identify multiple opportunities for drug repurposing: Primary screen for U-2 OS cells (AID 1347096); note: nearly all actives have a fitted effect of over 50% in size
# Procedure, shortened: (§2)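 Cells (500-1,000/well) rested 5 h, then received compounds for 48 h; metabolically active cells were measured by CellTiter-Glo luminescence. Final concentrations spanned up to 46 µM (MIPE, 11-point) or 0.59 nM-46 µM (NPC, 8-point) in primary screens, 11-point in follow-ups.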
# [5] = qHTS of pediatric cancer cell lines to identify multiple opportunities for drug repurposing: Primary screen for LAN-5 cells (AID 1347100)
# Procedure, shortened: as §2
# [6] = qHTS of pediatric cancer cell lines to identify multiple opportunities for drug repurposing: Primary screen for BT-12 cells (AID 1347101); note: nearly all actives have a fitted effect of over 25% in size
# Procedure, shortened: as §2
# [7] = qHTS of pediatric cancer cell lines to identify multiple opportunities for drug repurposing: Primary screen for OHS-50 cells (AID 1347103); settings: OHS-50 osteosarcoma viability, CellTiter-Glo luminescence, 48 h; activity change, negative = cytotoxic: at 57.3 µM (top of the series); note: nearly all actives have a fitted effect of over 40% in size
# Procedure, shortened: as §2
# [8] = qHTS of pediatric cancer cell lines to identify multiple opportunities for drug repurposing: Primary screen for Rh41 cells (AID 1347108);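 note: luminescence drop marks cytotoxic hits; nearly all actives have a fitted effect of over 70% in size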
# Procedure, shortened: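 Primary screen of approved and investigational compounds on cells in growth media at 37 degrees C, 5% CO2. MIPE set at 11-point and NPC set at 8-point dilutions; viability scored by ATP-based luminescence at 48 hours.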
# [9] = tested on: Zika virus NS2B-NS3 protease (unlinked complex); assay: Primary screen GU Rhodamine qHTS for Zika virus inhibitors: Unlinked NS2B-NS3 protease assay (AID 1347159); settings: Recombinant ZIKV NS2B-NS3 protease, Rhodamine110 substrate fluorescence; activity change, negative = inhibition: at 107 µM (top of the series); note: potency is the fitted concentration of half-maximal effect; nearly all actives have a fitted effect of over 60% in size
# Procedure, shortened: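 Unlinked NS2B/NS3, 25 nM; Rhod110 peptide, 1.5 microM; compounds, up to 114 microM. Reaction run 15 min at RT in 10 mM Tris-HCl pH 8.0, 0.01% Tween 20; kinetic fluorescence change fitted with a 4-parameter Hill model.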
# [10] = A High-Content qHTS Against Drug Library for the Identification of Small Molecules that Inhibit DYT1 Early Onset Primary Dystonia-Associated Cell Pathology (AID 1645839; calls by dose curve; note: potency is the fitted concentration of half-maximal effect)
# Procedure, shortened: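 High-content imaging quantified EGFP-TorsinA mislocalization in HEK293-derived cells inducibly expressing DYT1 mutant torsinA, after 48 h exposure to compound given together with tetracycline induction. Cell count served as a toxicity channel alongside %pathology.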
# [11] = Primary redox qHTS assay for identification of artifact compounds. (AID 1845223); note: potency is the fitted concentration of half-maximal effect
# Procedure, shortened: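 Redox-cycling detection via DTT (250 uM final) oxidation coupled to Amplex Red (25 uM)/HRP (250 mU/mL) in HBSS. 15 min preincubation plus 30 min after DTT, room temperature. Ex/Em 525/598 nm; 4-parameter Hill fit against DMSO and 10 uM DA3003.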
# [12] = qHTS of pediatric cancer cell lines to identify multiple opportunities for drug repurposing: Primary screen for A673 cells (AID 1347092); settings: A673 Ewing sarcoma viability, CellTiter-Glo ATP luminescence, 48 h; activity change, negative = cytotoxic: at 46 µM (top of the series); note: nearly all actives have a fitted effect of over 45% in size
# Procedure, shortened: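 Cells are plated, rested 5 h, dosed by pintool, incubated 48 h, then lysed with CellTiter-Glo and read by luminescence. DMSO is the neutral control; bortezomib at 2.3 uM final is the positive control.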
# [13] = Primary qHTS for small molecule stabilizers of the endoplasmic reticulum resident proteome: Secreted ER Calcium Modulated Protein (SERCaMP) assay (AID 1508630); settings: SH-SY5Y GLuc-SERCaMP (Gaussia luciferase released on ER calcium loss) secretion, thapsigargin, luminescence; activity change, negative = inhibition: at 38.4 µM (top of the series) unless noted; note: potency is the fitted concentration of half-maximal effect
# Procedure, shortened: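 The SH-SY5Y reporter protocol was run at 3 concentrations up to 38.3 uM (primary) or 11 concentrations (follow-up): 16 h compound, 100 nM thapsigargin for 4 h, then extracellular luciferase luminescence.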
# [14] = Primary qHTS for inhibitors of nuclear receptor binding SET domain protein 2 (NSD2) in an isogenic RCH-ACV NSD2 p.E1099K mutant (9B) (AID 1645876); settings: activity change, negative = viability loss: at 44.9 µM (top of the series) unless noted; note: nearly all actives have a fitted effect of over 70% in size
# [15] = P-glycoprotein substrates identified in KB-3-1 adenocarcinoma cell line, qHTS therapeutic library screen (AID 1346986); note: nearly all actives have a fitted effect of over 60% in size
# Procedure, shortened: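 Viability read by CellTiter-Glo after 72 h compound exposure in dose-response of KB-3-1 and KB-8-5-11 (P-gp-high) cells. Hits needed AC50 < 10 uM, >50% maximum response and curve class -1.1 to -2.4. Cherry-picks retested ± tariquidar, including pcDNA/MDR-19 HEK-293 pair.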
# [16] = tested on: Zika virus NS2B-NS3 protease (linked construct); assay: Primary screen NINDS Rhodamine qHTS for Zika virus inhibitors (AID 1347160); note: potency is the fitted concentration of half-maximal effect; nearly all actives have a fitted effect of over 55% in size
# Procedure, shortened: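 Single-chain NS2B-NS3 protease, 25 nM, pH 8.0; compounds preincubated 15 min. Activity: Rhodamine110 release from 1.5 microM substrate over 15 min, room temperature, data fitted to 4-parameter Hill.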
# [17] = Primary fluorescence-based thiol-reactive (MSTI) qHTS assay for identification of artifact compounds. (AID 1845221);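 note: potency is the fitted concentration of half-maximal effect; thiol-reactive compounds lower the probe fluorescence signal; nearly all actives have a fitted effect of over 65% in size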
# Procedure, shortened: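 Thiol-reactive compounds detected by quenching of 4 uM MSTI fluorescence (525/598 nm) after 1 h room-temperature dark incubation in PBS pH 7.4, 2% DMSO. qHTS titration; percent inhibition Hill-fitted against Acetyl-MSTI/MSTI controls.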
# Tags give direction and shape of the fitted curve.
compound,measurement,setting,value
NC[C@@H]1O[C@@H](O[C@@H]2[C@@H](O[C@@H]3O[C@H](CO)[C@@H](O)[C@H]3O)[C@H](O)[C@@H](N)C[C@H]2N)[C@@H](N)[C@H](O)[C@H]1O,Potency,PA-1,"inconclusive: 2 µM [rising, partial curve, poor fit]"
CC(NC(=O)CCc1nc2ccccc2c(=O)[nH]1)c1ccccc1 (centres undefined),Potency,[1],inactive
same,Potency,[2],inactive
same,Potency,PA-1,inactive
same,Potency,SKOV3,"inconclusive: 2.82 µM [rising, partial curve, poor fit]"
COc1cccc(OC)c1C(=O)N[C@@H]1C(=O)N2[C@@H]1SC(C)(C)[C@@H]2C(=O)O,Potency,[3],inactive
same,Potency,[4],inactive
same,Potency,[5],inactive
same,Potency,[6],inactive
same,Potency,[7],inactive
same,Potency,[8],inactive
same,Potency,[9],"inconclusive: 89.1 µM [inhibitor, single point]"
same,Potency,[10],"inconclusive: 35.5 µM [inhibitor, single point]"
same,Potency,[2],"inconclusive: 21.1 µM [inhibitor, partial curve, poor fit]"
same,Potency,[11],"inconclusive: 23.8 µM [activator, partial curve]"
same,Potency,PA-1,inactive
same,Potency,SKOV3,inactive
CC(=O)OC[C@H]1O[C@@H](OC(C)=O)[C@H](OC(C)=O)[C@@H]1OC(C)=O,Potency,[12],inactive
same,Potency,[6],inactive
same,Potency,[7],inactive
same,Potency,[13],"inconclusive: 10 µM [inhibitor, partial curve, poor fit]"
same,Potency,[1],inactive
same,Potency,[14],inactive
same,Potency,PA-1,inactive
same,Potency,SKOV3,inactive
C=C[C@@]12COC(=O)C(=C)C1[C@@H](O)[C@H](C(=C)C(=O)OC)[C@@H](OC(=O)C(=C)CO)C2 (some centres undefined),Potency,[15],inactive
same,Potency,[9],"inconclusive: 10 µM [inhibitor, full curve]"
same,Potency,[16],"inconclusive: 7.94 µM [inhibitor, single point]"
same,Potency,[17],active: 11.6 µM
same,Potency,PA-1,"inconclusive: 20 µM [cytotoxic, partial curve, poor fit]"
same,Potency,SKOV3,"inconclusive: 3.98 µM [cytotoxic, single point]"
COC(=O)CC[C@H](NC(=O)[C@H](CC(C)C)NC(=O)OCc1ccccc1)C(=O)N[C@@H](Cc1cnc[nH]1)C(=O)N[C@@H](CC(=O)OC)C(=O)CF (Cbz-LE(OMe)HD(OMe)-CH2F),Potency,[9],"inconclusive: 14.1 µM [inhibitor, single point]"
same,"activity change, negative = cytotoxicity",PA-1,inactive: -3.2% [at 11.6 µM]
same,"activity change, negative = cytotoxicity",SKOV3,inactive: -4.39% [at 11.6 µM]

# Source: PubChem BioAssay (NCATS)
